Results as given in patent US20230250147A1, “GLP-1R AGONISTIC PEPTIDES WITH REDUCED ACTIVITY” (SANOFI, priority 2020, published 2023).

B1: SEQ ID NO: 7: GLP-1RA/FGF21 Fc fusion protein (protein)
chain: GHGEGTFTSDKSKQLEEEAVRLFIEWLKAGGPKKIRYSGGGGGGGSGGGGSGGGGSA[… human IgG1 Fc with changes …]GGGSGSAHPIPDSSPLLQFGGQVRQRYLYTDDACQTEAHLEIREDGTVGGAADQSPESLLQLKALKPGVIQILGVKTSRFLCQRPDGALYGSLHFDPEACSFRELLLEDGYNVYQSEAHGLPLHLPGCKSPHRDPAPRGPARFLPLPGLPPAPPEPPGILAPQPPDVGSSDPLSMVGSQGRSPSYAS
modifications: Fusion Protein
notes: GLP-1RA/FGF21 Fc fusion protein
B2: SEQ ID NO: 8: GLP-1RA/FGF21 Fc fusion protein (protein)
chain: GHGEGTFTSDKSKQLEEEAVRLFIEWLKAGGPKKIRYSGGGGGGGSGGGGSGGGGSA[… human IgG1 Fc with changes …]GGGSGSAHPIPDSSPLLQFGGQVRQRYLYTDDACQTEAHLEIREDGTVGGAADQSPESLLQLKALKPGVIQILGVKTSRFLCQRPDGALYGSLHFDPEACSFRELLLEDGYNVYQSEAHGLPLHLPGCKSPHRDPAPRGPARFLPLPGLPPAPPEPPGILAPQPPDVGSSDPLSMVYPSQGRSPSYAS
modifications: Fusion Protein
notes: as for B1

What was measured:
female DIO mice = experiment: Multiple dose diet-induced obese (DIO) mice: body weight and food consumption; type: in vivo, Female C57BL/6N mice; conditions: vs vehicle or dulaglutide; for body weight: once weekly dosing for 4 weeks; for cumulative food consumption: once weekly dosing, end of the study
Protocol: Female C57BL/6N Charles River mice were housed in groups in a specific pathogen-free barrier facility on a 12 hour light/12 hour dark cycle with free access to water and standard or high-fat diet (ssniff adjusted Fat Diet E15797). After 20 weeks of pre-feeding on high-fat diet, mice were stratified for body weight to treatment groups (n=8), so that each group had similar mean body weight. An age-matched group with ad-libitum access to standard chow (ssniff R/M-H, V1534-0) was included as standard control group. A dulaglutide treated group was also included as comparator. Prior to the start of treatment, mice were subcutaneously (s.c.) injected with vehicle solution and weighed for 3 days to acclimate them to the procedures.
1) Acute effect on blood glucose in fed female DIO mice: initial blood samples were taken just before first administration (s.c.) of vehicle (phosphate buffer solution) or first administration of GLP-1 RA/FGF21 Fc fusion proteins (dissolved in phosphate buffer), respectively. The volume of administration was 5 or 10 mL/kg, depending on concentration of stock solution. The animals had access to water and their corresponding diet during the experiment. Blood glucose levels were measured at t=0 hours, t=1 hour, t=2 hours, t=3 hours, t=4 hours, t=6 hours and t=24 hours (method: Accu-Check glucometer). Blood sampling was performed by tail incision without anaesthesia.
2) Chronic effect on body weight in female DIO mice: mice were treated once weekly, every 8th day in the morning at the beginning of the light phase with either vehicle or test compounds for 4 weeks. Body weight and food consumption were recorded daily. Two days before start of treatment and on day 26, total fat mass was measured by nuclear magnetic resonance (NMR).

[1] = test system: female diabetic db/db mice; experiment: Blood glucose-lowering effects of multiple subcutaneous doses in fed, female diabetic db/db mice; type: in vivo; conditions: for HbA1c: end of the study (day 36)
Protocol: Female, healthy, lean (BKS.Cg-(lean)/OlaHsd or BKS.Cg-Dock7(m)+/+Lepr(db)J) and diabetes-prone, obese db/db (BKS.Cg-+Leprdb/+Leprdb/OlaHsd or BKS.CG-m+/+Lepr(db)/J) mice were ordered from Envigo RMS Inc. or Charles River Laboratories. All animals were group housed in shoebox cages with wood chip bedding and were acclimated for approximately 2 to 3 weeks prior to dosing phase.
Mice were housed under vivarium conditions including a 12 hour light/12 hour dark cycle (light phase 04:00 AM-4:00 PM), a room temperature between 20-26° C. and a relative humidity between 30-70%. All animals had free access to Greenfield city water and a Purina Fomulab Diet 5008. At the study start mice were approximately 10-12 weeks old.
Blood was collected for a HbA1c and blood glucose measurement on day 9 via tail clips. Blood glucose concentrations were measured using AlphaTRAK glucometers extended range (code 29 strips). Glucometer measurements were taken prior to any other in life activities and were performed in duplicate. If the values differed by more than 20 mg/dL (calculated glucometer value) a third value was recorded. Body mass measurements were collected on days 9 and 15. HbA1c and body mass values were used for block randomization. Animals were assigned to treatment groups (n=8/group) and to new cages and cage mates (n=4 animals/cage) on day 15 according to block randomization results. The lean group was included in the study as an age-matched, healthy reference group.
Animals were either treated with a subcutaneous injection volume of 5 ml/kg of vehicle (sterile PBS), dulaglutide, SEQ ID NO: 8 or SEQ ID NO: 7 once on days 1, 8, 15, 22, and 27 of the dosing phase. Dosing was completed between 10:00 and 12:00 AM and was adjusted to the most recent body mass recording of each individual. Injection solutions including Trulicity (Dulaglutide Pen) were prepared by addition of sterile PBS to the stock solutions or Pen formulation in order to achieve the appropriate concentrations.
1) Blood glucose concentrations in morning-fed animals: Animals had unlimited access to water and feed during the experiment. Blood glucose was measured prior to any other in life activities between 10:00 to 12:00 AM on days 1, 2, 8, 9, 15, 16, 22, 23, 27, and 28 as well as 24 hours post-dose on days 2, 9, 16, 23, and 28. In addition, on days 1 and 22, blood was collected 1, 2, 3, 4, 6 and 24 hours post-dose (FIG. 11). Approximately 5 μL of blood were collected via tail clip and blood glucose measurements were performed in duplicate using AlphaTRAK glucometers with the extended range (code 29 strips). If the values differed by more than 20 mg/dL (calculated glucose value) then a third value was recorded. The Area Under the Curve (AUC) was calculated by the trapezoid method for each individual and time period as indicated.
2) HbA1c analysis: Blood was collected via a tail clip on day 9 of the pre-dose phase and day 36 of the dosing phase. Blood was collected into a 5 μL non-additive micro capillary tube and immediately placed into a centrifuge tube containing hemolysate. The tube was shaken vigorously to mix the hemolysate with the blood and placed on a rocker to ensure the blood and reagent were completely mixed.
Statistical analyses: Data are depicted as means±SEM. […]

DIO NASH mice = experiment: DIO-NASH mouse model; type: in vivo, Male C57BI/6J mice; conditions: 50 mg/kg once-weekly s.c. for 8 weeks, vs dulaglutide
Protocol: Male C57BI/6J mice at 5 weeks of age were obtained from JanVier (JanVier labs, France), and each group housed 5 animals per cage under a 12 hour dark/12 hour light cycle. Room temperature was controlled to 22° C. 1° C., with 50%±10% humidity. Animals had ad libitum access to diet high in fat (40%, of these 18% trans-fat), 40% carbohydrates (20% fructose) and 2% cholesterol (D09100301, Research Diet, United States) previously described as the AMLN diet (Clapper et al. (2013) Am J Physiol Gastrointest Liver Physiol 305: G483-G495), or regular rodent chow (Altromin 1324, Brogaarden, Denmark), and tap water (lean chow, n=10-12). After 26 weeks, liver biopsies were performed for histological assessment of individual fibrosis and steatosis staging at baseline.
Mice were pretreated with enrofloxazin (Bayer, Germany) (5 mg/mL/1 mL/kg) one day before being biopsied. Prior to biopsy, mice were anesthetized with isoflurane (2%-3%) in 100% oxygen. A small abdominal incision in the midline was made and the left lateral lobe of the liver was exposed. A cone shaped wedge of liver tissue (50-100 mg) was excised from the distal portion of the lobe fixed in 4% paraformaldehyde for histology. The biopsy procedure previously described by Clapper et al. was refined using electrocoagulation of the cut surface of the liver by means of bipolar coagulation using ERBE VIO 1000 electrosurgical unit (ERBE, United States). The liver was returned to the abdominal cavity, abdominal wall was sutured and skin stapled. Carprofen (Pfizer, United States) (5 mg/mL-0.01 mL/10 g) and enrofloxazin (5 mg/mL-1 mL/kg) were administered intraperitoneal at the time of surgery and at post-operation day one and two, to control postoperative pain relief and infection, respectively. Following biopsy procedure animals were single housed and kept on AMLN diet for 3 weeks to recover. Stratification and randomization into study groups of 10-12 animals was based on individual disease staging as assessed by baseline liver biopsies.
Animals were then treated with 50 mg/kg GLP-1RA/FGF21 Fc fusion protein, 0.6 mg/kg dulaglutide, or vehicle (PBS) once-weekly subcutaneously injections for further 8 weeks either on AMLN or chow diet. Subsequently animals were euthanized, liver weights were determined, and liver tissue collected for histological and biochemical analyses (see FIG. 13).
Baseline liver biopsy and terminal samples were collected from the left lateral lobe (about 100 mg) and fixed overnight in 4% paraformaldehyde. Liver tissue was paraffin embedded and sectioned (3 μm thickness). To assess hepatic morphology and fibrosis, sections were stained with Hematoxylin and Eosin and Sirius Red, respectively, followed by analysis with Visiomorph software (Visiopharm, Denmark). Histological assessment and scoring was performed by a pathologist blinded to the study. NAFLD activity score (NAS) (steatosis, inflammation, ballooning degeneration) and fibrosis stage were performed using the clinical criteria outlined by Kleiner et al. (2005) Hepatology 41: 1313-1321. Data are presented in two different formats in FIG. 14 and FIG. 15.

[2] = 24 hour profile, vs vehicle or dulaglutide

| Molecule | body weight (female DIO mice) | cumulative food consumption (female DIO mice) | blood glucose levels [1, 2] | HbA1c ([1]; vs vehicle or dulaglutide) | blood glucose levels ([1]; highest dose, 24 hour blood glucose profile on day 22 of treatment) | NAFLD activity score (DIO NASH mice) | liver cholesterol content (DIO NASH mice) | liver total lipid content (DIO NASH mice) | liver triglyceride content (DIO NASH mice) | liver weight (DIO NASH mice) |
| --- | --- | --- | --- | --- | --- | --- | --- | --- | --- | --- |
| B1 | significantly lost more body weight than the vehicle or dulaglutide treated animals | cumulatively consumed more food than vehicle or dulaglutide treated animals | lowering effect on blood glucose levels was significantly greater than in vehicle or dulaglutide treated animals | more pronounced suppression of HbA1c increase | – | – | – | – | – | – |
| B2 | significantly lost more body weight than the vehicle or dulaglutide treated animals | cumulatively consumed more food than vehicle or dulaglutide treated animals | lowering effect on blood glucose levels was significantly greater than in vehicle or dulaglutide treated animals | more pronounced suppression of HbA1c increase | reduction of blood glucose levels to normal non-diabetic animal levels | superior to those of GLP-1 agonism alone | superior to those of GLP-1 agonism alone | superior to those of GLP-1 agonism alone | superior to those of GLP-1 agonism alone | superior to those of GLP-1 agonism alone |
